Measurements as given in the supplement of paper PMC11741623.
The other results are listed elsewhere or left out. Interaction screen of human proteins with wild-type SARS-CoV-2 proteins by split-DHFR complementation in yeast, 1 µg/mL methotrexate. Value = fitness of the pair (three or more lineages) minus that of the viral protein without a human partner, on a scale set by negative (0) and fused positive (1) controls, mean of up to three cultures; higher = more likely to interact. Active = false discovery rate below 0.05 (one-sided t-test) in at least one culture. Nearly all pairs are not hits, and differences among them are mostly noise (correlation between cultures about 0.3); most hits were seen in one culture only. Human sequences are the Swiss-Prot entries looked up by gene name; the clone may be another isoform. NSP2 values were corrected by the authors for a growth advantage. Listed are human proteins with a hit and a random twelfth of the others.

The substances below were run on SARS-CoV-2 M (assay: yeast fitness gain over the viral ORF with no human partner (scaled fitness); higher = more likely to interact).
Protocol: (§1)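 Split mouse DHFR complementation in pooled diploid yeast: human ORFeome clones carry one fragment and viral ORFs the other; barcoded lineages compete in 1 µg/mL methotrexate and fitness is read by barcode sequencing in up to three cultures.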

Substance | yeast fitness gain
LARP1B, Q659C4 | inactive: -0.112
BNIP3L, O60238 | inactive: 0.0282
BHLHA15, Q7RTS1 | inactive: -0.171
PTBP1, P26599 | inactive: -0.103
ZNF720, Q7Z2F6 | inactive: -0.0132
CBWD1, Q9BRT8 | inactive: -0.00961
KPNA1, P52294 | inactive: -0.132
HYDIN, Q4G0P3 | inactive: -0.0219
HAUS7, Q99871 | inactive: -0.0115
PTCD1, O75127 | inactive: -0.0506

Each substance was assayed on SARS-CoV-2 NSP10 in the same assay as above.
Protocol: as §1

Substance | yeast fitness gain
LARP1B, Q659C4 | inactive: -0.0454
MCM9, Q9NXL9 | inactive: -0.12
OR4D1, Q15615 | inactive: -0.0024
ZFYVE26, Q68DK2 | inactive: -0.205
MAFF, Q9ULX9 | inactive: -0.00801
BNIP3L, O60238 | inactive: 0.0399
TLK2, Q86UE8 | inactive: 0.074
BHLHA15, Q7RTS1 | inactive: -0.473
PTBP1, P26599 | inactive: 0.0312
SRGAP1, Q7Z6B7 | inactive: 0.0582
ZNF720, Q7Z2F6 | inactive: -0.107
EGR3, Q06889 | inactive: 0.014
KPNA1, P52294 | inactive: -0.114
HYDIN, Q4G0P3 | inactive: 0.0491
TET2, Q6N021 | inactive: -0.0812
HAUS7, Q99871 | inactive: 0.0101
PTCD1, O75127 | inactive: 0.0572

What follows are substances tested on SARS-CoV-2 NSP13 in the same assay as above.
Protocol: as §1

Substance | yeast fitness gain
MCM9, Q9NXL9 | inactive: 0.012
OR4D1, Q15615 | inactive: -0.356
ZFYVE26, Q68DK2 | inactive: 0.00721
MAFF, Q9ULX9 | inactive: -0.0403
BNIP3L, O60238 | inactive: -0.144
TLK2, Q86UE8 | inactive: -0.0702
BHLHA15, Q7RTS1 | inactive: -0.128
PTBP1, P26599 | inactive: 0.0618
SRGAP1, Q7Z6B7 | inactive: -0.0761
DESI2, Q9BSY9 | inactive: 0.138
ZNF720, Q7Z2F6 | inactive: -0.0615
EGR3, Q06889 | inactive: -0.0888
KPNA1, P52294 | inactive: -0.0847
HYDIN, Q4G0P3 | inactive: 0.0373
TET2, Q6N021 | inactive: -0.0893
HAUS7, Q99871 | inactive: 0.0994
PTCD1, O75127 | inactive: -0.0167
HOXC8, P31273 | inactive: 0.0347
